Experimental data: publication PMC4336329 (PLoS ONE, 2015)
The campaign covered roughly 310,000 compounds. About 2,200 (0.71%) showed an effect of 50% or more. Effects have a minus sign here. The list shows a part of the results.

Biological target: human ether-à-go-go-related gene (hERG) potassium channel (human, UniProt Q12809)
Assay: primary screen, population patch clamp on CHO cells stably expressing hERG

Sequence of human ether-à-go-go-related gene (hERG) potassium channel (Q12809 whole entry, looked up): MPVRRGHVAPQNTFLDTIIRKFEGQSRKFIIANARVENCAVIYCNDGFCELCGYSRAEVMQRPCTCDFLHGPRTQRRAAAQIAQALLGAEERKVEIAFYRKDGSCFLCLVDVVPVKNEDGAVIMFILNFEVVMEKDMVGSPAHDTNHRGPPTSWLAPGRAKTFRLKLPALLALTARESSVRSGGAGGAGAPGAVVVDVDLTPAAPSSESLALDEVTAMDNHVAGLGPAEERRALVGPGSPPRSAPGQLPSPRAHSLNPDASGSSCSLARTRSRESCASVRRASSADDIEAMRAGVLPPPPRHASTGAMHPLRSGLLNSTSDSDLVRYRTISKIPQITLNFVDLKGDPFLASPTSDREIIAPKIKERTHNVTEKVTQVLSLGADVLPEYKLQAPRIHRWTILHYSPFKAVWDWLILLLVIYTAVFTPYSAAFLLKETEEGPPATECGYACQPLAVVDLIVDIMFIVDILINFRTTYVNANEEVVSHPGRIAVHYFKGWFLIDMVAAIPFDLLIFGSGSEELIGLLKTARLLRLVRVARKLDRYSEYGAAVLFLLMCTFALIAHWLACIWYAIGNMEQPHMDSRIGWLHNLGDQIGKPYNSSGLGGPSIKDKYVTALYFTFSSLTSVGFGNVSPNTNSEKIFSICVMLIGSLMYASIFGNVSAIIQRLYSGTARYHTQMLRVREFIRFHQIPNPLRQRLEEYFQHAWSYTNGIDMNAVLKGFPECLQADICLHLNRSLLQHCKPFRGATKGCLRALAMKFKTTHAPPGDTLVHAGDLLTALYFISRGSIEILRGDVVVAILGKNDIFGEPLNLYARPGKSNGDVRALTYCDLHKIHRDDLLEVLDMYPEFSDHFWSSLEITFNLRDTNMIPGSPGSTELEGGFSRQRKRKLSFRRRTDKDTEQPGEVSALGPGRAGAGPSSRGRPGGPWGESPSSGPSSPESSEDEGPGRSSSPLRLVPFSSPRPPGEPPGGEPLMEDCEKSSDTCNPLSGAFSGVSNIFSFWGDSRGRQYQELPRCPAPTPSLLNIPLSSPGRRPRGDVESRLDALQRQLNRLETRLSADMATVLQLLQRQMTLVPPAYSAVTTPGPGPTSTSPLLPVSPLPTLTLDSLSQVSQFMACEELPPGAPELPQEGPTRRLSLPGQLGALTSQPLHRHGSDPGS

Structure (SMILES) | hERG current change (%, negative = inhibition) at 1uM [%]
COc1cc2c(C(=O)NCc3ccccn3)cn(C)c(=O)c2cc1OC | 16.2
CC(C)(C)NS(=O)(=O)c1ccc(OCC(=O)NCC2CCCO2)cc1 (centres unmarked) | 2.34
CCOC(=O)c1cc2occc2n1CCCN1C(=O)c2ccccc2C1=O | 2.89
CC(Oc1ccc(Cl)cc1Cl)C(=O)Nc1ccc(OCC(=O)O)cc1 (centres unmarked) | 23.3
O=C(O)c1ccc(OCC(O)Cn2c3ccccc3c3ccccc32)cc1 (centres unmarked) | -5.97
COc1ccc(NCCNc2ccc(OC)cc2)cc1 | -2.1
NC(=O)c1ccc(NC(=O)Cc2cccs2)cc1 | 11.2
COC(=O)C(C)Sc1ccc2nnc(-c3cccc(F)c3)n2n1 (centres unmarked) | -6.02
CN(C(=O)c1cccc(C(=O)N(C)c2ccccc2)c1)c1ccccc1 | 9.07
COCCNC(=O)C(C)N1c2cccc3cccc(c23)S1(=O)=O (centres unmarked) | 19.1
O=C(Cc1c(O)c2ccccc2[nH]c1=O)NCc1ccc(F)cc1 | 14.6
O=C1CC(NCc2ccc(F)cc2)C(=O)N1c1ccccc1 (centres unmarked) | 10.7
COc1cccc(-n2ccnc2SCC(=O)Nc2cc(C)on2)c1 | 12.2
CN1CCN(C(=O)CCc2nnc3ccc(N4CCC5(CC4)OCCO5)nn23)CC1 | 16.9
O=C(CN1CCCc2ccccc21)N/N=C/c1ccc(O)cc1O | 8.42
CC(C)C(=O)Nc1nnc(SCc2cccc(F)c2)s1 | 10.8
Cl.N=C(c1cccc([N+](=O)[O-])c1)N1CCCCC1 | 6.2
CSCCC(NC(=O)COc1ccccc1)C(=O)N1CCOCC1 (centres unmarked) | 1.84
Cc1ccc(-c2nc(S(=O)(=O)c3ccc(F)cc3)c(SCC(=O)NCC3CCCO3)o2)cc1 (centres unmarked) | 14.5
CCOC(=O)N1CCN(C(=O)c2ccc(Cn3c(=S)[nH]c4ccc(Br)cc4c3=O)cc2)CC1 | 15
NC(=O)CSc1nc(C2CC2)nc2sc3c(c12)CCCC3 | 12.5
C=CCOc1nc2sc(C)c(C)c2c(=O)n1-c1ccccc1 | 9.76
c1ccc(-c2nnc(-c3ccccn3)c(-c3ccccn3)n2)nc1 | 12.3

Structure (SMILES) | hERG current change (%, negative = inhibition) at 1uM [%]
Cc1cc(C)cc(NCCC#N)c1 | 8.65
CCOC(=O)c1sc(N(Cc2ccccc2)C(=O)COC(=O)c2cnccn2)nc1C | 8.94
Cc1cc(/C=N/NC(=O)c2ccccn2)c(C)n1-c1cccc([N+](=O)[O-])c1 | 18.4
Cc1ccccc1CSCC(=O)NC1CCCC1 | 11.1
COCCOc1cc2ncnc(N3CCC(C(=O)O)CC3)c2cc1OCCOC | 5.49
COc1cc(Nc2ccccn2)cc(C(=O)Nc2cccc(C(F)(F)F)c2)c1 | 9.8
O=[N+]([O-])c1cccc(CNC2CCCCCC2)c1 | 1.2
COc1cccc(/C=C/C(=O)OCC(=O)c2cc(C)n(CC3CCCO3)c2C)c1OC (centres unmarked) | 5.3
CCNC(=S)N1CCN(c2ccccn2)CC1 | 10.3
Cn1c2ccccc2c2n[nH]c(=S)nc21 | 12.9
Cc1ccccc1CN1CCC(C(=O)Nc2ccc(Oc3cccnc3)cc2)CC1 | 9.81
COC(C(=O)N/N=C(\C)c1ccc(C)cc1)c1ccccc1 (centres unmarked) | 8.53
O=C(Nc1ccc2c(c1)OCO2)c1cc(-c2ccncc2)nc2ccccc12 | 2.35
O=C(/C=C/c1ccccc1)OCC(=O)c1ccc[nH]1 | 15.7
CC(N)C12CC3CC(CC(C3)C1)C2.Cl (centres unmarked) | 14.2
O=C(Nc1ccccn1)[C@@H]1CCC(=O)N1C(=O)OCc1ccccc1 | 15.7
O=C(CCn1nc(-c2ccccc2)c2ccccc2c1=O)Nc1cccnc1 | 10.2
CN1CCC(OC(=O)COc2ccc(C(C)(C)C)cc2)CC1.Cl | -16.3
CCOC(=O)C1(Cc2cccc(OC)c2)CCN(Cc2cnc(SC)nc2)CC1 | 2.25
O=C(NNC1CC(=O)N(c2cccc(Cl)c2)C1=O)c1cccs1 (centres unmarked) | 6.67
CCOC(=O)c1ccc(NC(=S)N2CCSC2c2c(F)cc(F)cc2F)cc1 (centres unmarked) | 4.7
Cc1ccc(F)cc1NC(=O)N1CCCN(C(=O)OC(C)(C)C)CC1 | -0.333
CCn1cc(S(=O)(=O)c2ccc(OC)cc2)c(=O)c2cc(OC)ccc21 | 13.2

Structure (SMILES) | hERG current change (%, negative = inhibition) at 1uM [%]
Cc1ccc(C(=O)N2CCCCC2)cc1S(=O)(=O)N1CCCC1 | 14.3
Cc1ccc(S(=O)(=O)NC2CCC(C(=O)O)CC2)cc1 (centres unmarked) | 9.17
COC(=O)C1CCN(C(=O)C2CCC(=O)N(CCCc3ccccc3)C2)CC1 (centres unmarked) | 14.9
O=c1ncn(-c2ccccc2C(F)(F)F)c2ncccc12 | 9.46
Cc1cc(NC(=O)CC(C)C)c(=O)n(Cc2cccc(F)c2)c1 | 11.9
CCOC(OCC)c1cn(Cc2ccc3c(c2)C(=O)c2ccccc2C3=O)nn1 | 19.1
CCOc1ccccc1NC(=O)CCNS(=O)(=O)c1cccc2nsnc12 | 9.61
COC(=O)c1[nH]c2ccccc2c1NC(=O)CN1CCN(C(=O)c2ccco2)CC1 | -3.88
CCOC(=O)CC(c1ccc(N)cc1)n1c(C)ccc1C (centres unmarked) | 13.2
CCCc1nnc(SCC(=O)Nc2nccs2)o1 | 12.9
O=C(NCc1ccccc1F)C1CCCN1C(=O)Nc1ccc(Cl)cc1 (centres unmarked) | 11.4
COc1ccc(-c2nnc3ccc(SCC(=O)N4CCCC4)nn23)cc1 | 3.13
COc1cc(C(=O)Nc2ccc3c(c2)ncn3C)cc(OC)c1OC | 16.6
O=C(CNC(=S)NC(=O)c1ccccc1)c1ccccc1 | 10.1
Cc1ccc(S(=O)(=O)NNC(=O)c2ccncc2)cc1[N+](=O)[O-] | 7.42
O=C(CSc1nnc(C2CC2)n1Cc1ccccc1)c1ccc(S(=O)(=O)N2CCOCC2)cc1 | 2.7
Cc1ccc(S(=O)(=O)N2CCN(S(=O)(=O)N3CCCCC3)CC2)cc1C | 9.57
O=C(COC(=O)C1CC(=O)N(Cc2ccccc2)C1)Nc1ccc2c(c1)OCO2 (centres unmarked) | 15.9
Cc1cc(Cl)ccc1OCC(=O)N/N=C1\CC2C=CCC12 (centres unmarked) | -1.63
CN(C)C(=O)C1C2NC(=S)N(c3cccc(Cl)c3)C1(C)Oc1ccc(Cl)cc12 (centres unmarked) | 13.8
CCc1nc2nc(C)c(NS(=O)(=O)c3ccc(Br)s3)c(=O)n2[nH]1 | 12.5
O=C(NCCCn1ccnc1)c1cnn2c1NC(c1ccccc1)CC2C(F)(F)F (centres unmarked) | 8.76
CCCOC(=O)c1c(NC(=O)CSc2nc(-c3ccco3)cc(C(F)(F)F)n2)sc(C(=O)OC)c1C | -2.09

Structure (SMILES) | hERG current change (%, negative = inhibition) at 1uM [%]
Cc1cc(C(=O)Nc2ccon2)c(C)o1 | 11.6
Cc1ccc(C(=O)N2CCN(C3c4cccc5cccc(c45)C3NS(=O)(=O)c3ccccc3)CC2)cc1 (centres unmarked) | 7.87
Cc1cccc(Cn2cccc2/C=C2/C(=N)N3C=CSC3=NC2=O)c1 | 2.88
CC1Cc2ccccc2N1C(=O)CSc1nnc(-c2ccc(S(=O)(=O)N3CCCC3)cc2)n1C (centres unmarked) | 5.3
CN1C(=S)SC(N(O)C(=O)Nc2ccccc2)C1(C)C (centres unmarked) | 1.87
COc1ccc([C@@H]2CC(=O)c3c(O)cc(O[C@@H]4O[C@H](CO[C@@H]5O[C@@H](C)[C@H](O)[C@@H](O)[C@H]5O)[C@@H](O)[C@H](O)[C@H]4O)cc3O2)cc1O | 11.5
COc1ccc(CCN(C)C2CCCN(C(=O)CCSC)C2)cc1OC (centres unmarked) | -15.5
COc1ccc(OC)c(NC(=O)c2sc3nc(C)cc(C)c3c2N)c1 | 14.6
CC(=O)c1cccc(NS(=O)(=O)c2ccc(C(=O)Nc3ccccc3)cc2)c1 | 11
CCc1n[nH]c(=S)n1/N=C/c1ccc(N(CC)CC)cc1 | 12.5
CCCCNC(=O)O[C@@H]1C[C@H]2CCCC(=O)N3CC[C@@H](C1)[C@@H]23 | 7.26
CC(C)(C#CCCCCC#CC(C)(C)[N+](C)(C)C)[N+](C)(C)C.[I-] | 4.28
CC1CCN(c2ccc3nnc(CCC(=O)N4CCN(c5ccccc5F)CC4)n3n2)CC1 | -7.39
Cc1nc(N2CCCC2C(=O)O)c2oc3ccccc3c2n1 (centres unmarked) | 12.4
Cc1ccc(CNC(=O)c2cccnc2)cc1 | 13.2
COc1cc(C2C(C#N)=C(N)Oc3cc(C)oc(=O)c32)cc(OC)c1OC (centres unmarked) | 20.5
CCO[C@H]1OC(C(=O)N2CCCCCCC2)=C[C@@H](c2ccccc2)[C@@H]1CCCO | 6.42
CN(c1ccc(C(=O)Nc2cccc([N+](=O)[O-])c2)cc1)S(C)(=O)=O | 2.74
COc1ccc(C(=O)Nc2nc(C)cc(C)n2)cc1 | -2.44
CCNc1nc(Oc2ccc(C(=O)OCC)cc2)nc(SC)n1 | 5.99
